# Screen size: about 50,000 compounds; about 800 (1.6%) showed an effect of 50% or more. The list shows a part of the results.
# Biological target: Bcl-2-like protein 10 (Homo sapiens) (UniProt Q9HD36)
# Assay: TR3 peptide-Bcl-B binding displacers, biochemical primary FP assay, phenotype converters (AID 1240);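 note: 0% = Bcl-B with tracer peptide and DMSO and 100% = tracer peptide lacking Bcl-B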
# Details: GST-Bcl-B / FITC-TR3 peptide fluorescence polarization; stronger effect = higher value; compound at 3.75 mg/L
# Chain of UniProt Q9HD36 (Q9HD36 whole entry, looked up): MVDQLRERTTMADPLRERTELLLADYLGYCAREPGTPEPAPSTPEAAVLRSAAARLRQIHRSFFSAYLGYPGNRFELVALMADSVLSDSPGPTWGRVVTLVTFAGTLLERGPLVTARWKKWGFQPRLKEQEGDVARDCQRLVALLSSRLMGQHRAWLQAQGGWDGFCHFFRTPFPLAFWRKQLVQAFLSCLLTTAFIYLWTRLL
row,Structure (SMILES),displacement [%]
1,CCCCOC(=O)c1ccc(NC(=O)COc2ccc([N+](=O)[O-])cc2)cc1,31.5
2,O=C(O)CC1S/C(=N/N=C/c2ccco2)NC1=O (stereo not given),-7.1
3,COc1cc(OC)cc(C(=O)N2CCN(Cc3ccc([N+](=O)[O-])cc3)CC2)c1,-5.5
4,Cc1ccc(Cc2cnc(NC(=O)C3CCCO3)s2)cc1 (stereo not given),16.8
5,Cc1nn(-c2ccccc2)c(C)c1/C=N/NC(=O)c1cc(-c2ccc(Cl)cc2)n[nH]1,-8
6,Cc1ccc(NC(=O)/C(C#N)=C/c2ccc(N(C)C)o2)cc1C,-130
7,CC(Oc1ccc2ccc(=O)oc2c1)C(=O)c1ccccc1 (stereo not given),8.3
8,CC1=NN(c2cccc(C(=O)O)c2)C(=O)/C1=C\c1ccco1,6.5
9,COc1ccc(/C=N\NC(=O)c2ccc(Br)cc2)cc1I,6.2
10,CC(C)c1ccc(CNC(=O)CSc2nc3ccccc3s2)cc1,-4.6
11,COc1ccc(OC)c(NC(=S)NC(=O)c2ccc(Cl)cc2)c1,1.6
12,CCn1c2ccccc2c2cc(CN3CCN(Cc4cc(OC)c(OC)cc4OC)CC3)ccc21,10.1
13,CN(C)c1cccc(C(=O)N2CCN(c3cccc(Cl)c3)CC2)c1,0.2
14,NNC(=O)/C(=C\c1ccco1)NC(=O)c1ccco1,-6.5
15,COc1nc(-c2ccccc2)c2cc(Br)ccc2n1,-5.2
16,COC(=O)c1cc(=O)[nH]c(Nc2nc3ccccc3o2)n1,9.2
17,COc1ccc(N(CC(=O)Nc2ccccc2OC)S(=O)(=O)c2ccccc2)cc1Cl,4.6
18,COc1ccc2ccccc2c1/C=N/NC(=O)Cc1nnc(N)s1,2.4
19,CC(C)(C)c1cc(C(=O)N/N=C\c2ccc(Cl)cc2)n[nH]1,-5.3
20,O=C(Nc1cccc(C(F)(F)F)c1)c1ccc(-c2cccc(Cl)c2)o1,-3.8
21,COc1ccc(NC(=O)c2ccc3c(c2)C(=O)N(c2ccccc2-c2ccccc2)C3=O)c(OC)c1,12.7
22,O=C(NC1CCCCC1)C(c1ccccc1)c1ccccc1,-2.4
23,O=C1CN(S(=O)(=O)c2cccc([N+](=O)[O-])c2)CC(=O)N1,-9.1
24,COc1ccccc1NC(=O)C1=C(C)NC(=S)NC1c1cccc(Br)c1 (stereo not given),-26.7
25,Cc1ccc(/C=C2\C(=O)NC(=S)N(c3ccc(Br)cc3)C2=O)o1,18.7
26,CSc1nnc2n(-c3ccccc3)c(=O)c3c4c(sc3n12)CCCCC4,-3.9
27,CC1=C(C(=O)OCC(C)C)C(c2ccc([N+](=O)[O-])cc2)NC(=O)N1 (stereo not given),15.2
28,C/C(NCc1ccccc1)=C(\C#N)C(=O)NCc1ccccc1,-2.4
29,O=C(Nc1ccccn1)C(O)c1ccccc1 (stereo not given),16.8
30,O=C(Nc1ccccc1C(=O)N1CCOCC1)c1ccc(Cl)cc1,-7.9
